In all, about 110,000 compounds were measured (“z-score”: median about -0.1, highest 2% from about 2 on). The list shows a part of the results. Calls of active or inactive are those of the source.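 How the source made its calls: active means z-score in the third read window above 3 or below -3; inactive means the rest.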
The compounds below were run against Metabotropic glutamate receptor 8 (Rattus norvegicus) (UniProt P70579) (assay: mGluR8 Gi/Go-coupled signaling modulation – cell-based, rat, thallium flux, HTS, primary screen (AID 488969)). Conditions: HEK293 rat mGluR8, GIRK (G protein-gated inwardly rectifying potassium channel) thallium flux, FluoZin2; at 10 µM; stronger effect = higher value; submaximal glutamate (EC20) added with thallium.
Sequence of UniProt P70579 (P70579 whole entry, looked up): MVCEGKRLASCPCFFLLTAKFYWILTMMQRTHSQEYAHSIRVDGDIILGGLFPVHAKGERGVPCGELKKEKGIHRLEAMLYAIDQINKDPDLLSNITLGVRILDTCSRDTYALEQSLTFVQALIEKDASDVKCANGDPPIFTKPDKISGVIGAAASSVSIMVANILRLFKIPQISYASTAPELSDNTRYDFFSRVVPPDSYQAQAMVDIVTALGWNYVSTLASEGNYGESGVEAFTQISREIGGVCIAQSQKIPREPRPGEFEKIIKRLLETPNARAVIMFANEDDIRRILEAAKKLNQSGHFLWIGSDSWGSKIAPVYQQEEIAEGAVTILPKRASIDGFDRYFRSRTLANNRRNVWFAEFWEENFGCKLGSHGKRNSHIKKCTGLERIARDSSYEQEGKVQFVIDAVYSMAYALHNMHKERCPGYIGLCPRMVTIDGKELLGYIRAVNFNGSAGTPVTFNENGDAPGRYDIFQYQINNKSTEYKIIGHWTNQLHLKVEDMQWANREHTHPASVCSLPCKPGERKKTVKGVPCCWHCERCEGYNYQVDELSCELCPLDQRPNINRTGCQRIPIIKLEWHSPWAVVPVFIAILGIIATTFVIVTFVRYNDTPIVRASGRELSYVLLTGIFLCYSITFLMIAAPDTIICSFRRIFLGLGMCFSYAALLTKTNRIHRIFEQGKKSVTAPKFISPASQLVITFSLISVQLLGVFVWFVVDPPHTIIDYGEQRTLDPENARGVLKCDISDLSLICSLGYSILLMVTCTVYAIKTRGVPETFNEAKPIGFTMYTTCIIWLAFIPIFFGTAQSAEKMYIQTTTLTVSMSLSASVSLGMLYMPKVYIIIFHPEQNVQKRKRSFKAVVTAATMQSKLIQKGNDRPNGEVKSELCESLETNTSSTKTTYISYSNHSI
With COc1ccc(C(C(=O)NC2CCCC2)N(C(=O)c2ccco2)c2ccc3c(c2)OCO3)cc1OC (centres undefined) the z-score was 1.1. COc1cc(N2CCCC2)c(OC)cc1/C=C(/C#N)c1ccc(F)cc1 showed a z-score of 0.791. CCOC(=O)C1C(=O)C=C(Nc2ccccc2F)CC1c1ccccc1 (centres undefined) showed a z-score of -1.33. Compound Cc1ccc(C(=O)Nc2c(C)n(C)n(-c3ccccc3)c2=O)cc1S(=O)(=O)N1CCOCC1 has a z-score of 0.139. Work on COc1cc(C(=O)Nc2ccc(-c3nc4cc(C)ccc4o3)c(O)c2)cc(OC)c1OC yielded a z-score of -0.327. COc1ccc(CCNS(=O)(=O)c2ccc(C3CNC(=O)C3)cc2)cc1OC (centres undefined) showed a z-score of -0.256. For COc1ccc(NC(=O)CCSc2nnc(C)s2)cc1, the z-score was -0.465. N#CC(c1ccccc1)c1ccc2c(C(F)(F)F)cc(C(F)(F)F)nc2n1 (centres undefined) showed a z-score of 0.135. In the case of COc1cc(OC)c(NC(=O)CCNC(=O)Cn2cnc3ccccc3c2=O)cc1Cl, the z-score is reported as 2.94. CCCc1nnc(NC(=O)CCC(=O)NCc2ccccc2OC)s1 showed a z-score of 0.108. O=C(NCc1ccccc1)C1CCCN(S(=O)(=O)c2cccs2)C1 (centres undefined) was tested, and the z-score was -0.171. CCCNc1nc(C)c(C(C)=O)cc1C#N gave a z-score of -0.0837. In the case of Cn1c(=O)c2c(nc(NCc3ccc4c(c3)OCO4)n2Cc2ccccc2Cl)n(C)c1=O, the z-score is reported as 0.17. Compound Cc1csc2nc(CNS(=O)(=O)c3ccc4c(c3)CCCC4)cn12 has a z-score of -0.0983. With COc1ccccc1C(O)Cc1nc2ccccc2n1C (centres undefined) the z-score was -0.393. With CN(C)C(CNC(=O)c1cccc(OC(F)F)c1)c1ccco1 (centres undefined) the z-score was 0.0916. CCC(=O)N1CCc2cc(S(=O)(=O)N3CCN(C(=O)c4ccco4)CC3)ccc21 gave a z-score of 0.953. In the case of O=C(O)CONC(=O)c1cc(OCC(F)(F)F)ccc1OCC(F)(F)F, the z-score is reported as -0.0842. COC(=O)c1ccc(OC(C)C(=O)c2ccc(C)cc2)cc1 (centres undefined) was tested, and the z-score was -0.231. In the case of Cc1ccc(C)c(N2CCN(S(=O)(=O)c3c(C)noc3/C=C/N(C)C)CC2)c1, the z-score is reported as -0.559. O=C(Nc1ccccc1)c1cc(S(=O)(=O)N2CCOCC2)cs1 gave a z-score of 0.0281. O=C(c1cc2c(s1)CCCC2)N1CCN(C(=O)C2CCCO2)CC1 (centres undefined) gave a z-score of 0.655. For COc1ccc(-c2oc3ncnc(N)c3c2-c2ccccc2)cc1, the z-score was -0.565. For CC1(C)CN=C(NC2CCCCC2)S1, the z-score was 0.817. Work on COc1ccc(-c2cc(-c3ccccc3)c(C#N)c(S(C)=O)n2)cc1 (centres undefined) yielded a z-score of -2.24. COC(=O)c1cn(NC(=O)/C=C/c2ccc(OC)c(OC)c2)c(=O)c2ccccc12 was tested, and the z-score was 0.446. Work on COc1ccc(-c2noc(Cc3ccccc3OC)n2)cc1 yielded a z-score of -0.376. CCOC(=O)c1ccccc1NC1c2ccccc2C(=O)N1c1cc(C)ccn1 (centres undefined) was tested, and the z-score was -0.0859. COc1cccc(-c2csc(N3CCN(CC(=O)NNC(=O)c4ccc(Cl)cc4)CC3)n2)c1 gave a z-score of 0.201. In the case of O=C(Nc1cccc(F)c1)N1CC=C(n2c(=O)[nH]c3ccccc32)CC1, the z-score is reported as -0.978. With CCCC1CC(CSC(=N)N)OC1=O (centres undefined) the z-score was -0.478. N#CCSc1nc(-c2ccccc2)cs1 gave a z-score of -0.0202. For Cc1sc2nc3c(SC(C)C(=O)O)cc(C(=O)c4ccccc4O)cn3c(=O)c2c1C (centres undefined), the z-score was -0.913. COc1ccc(OC)c(-c2nc(C)sc2CC(=O)O)c1 showed a z-score of -0.649. O=C(Oc1ccc2cccc(OC(=O)N3CCOCC3)c2c1)N1CCOCC1 showed a z-score of 0.24. With O=C(COC(=O)c1ccccc1NCc1ccco1)Nc1ccc2c(c1)OCO2 the z-score was 0.427. CCOC(=O)C1C(=O)OC(C)(C)C1C(C)C(=O)c1ccc(OC)cc1 (centres undefined) showed a z-score of -0.13. Compound CCN1CCCC1CN(Cc1cc2c(C)cc(C)cc2[nH]c1=O)C(=O)NC1CCCCC1 (centres undefined) has a z-score of -0.0328. Work on O=S(=O)(c1ccc(S(=O)(=O)N(Cc2ccco2)Cc2ccccc2Cl)cc1)N1CCCC1 yielded a z-score of 0.644. Work on O=C(N/N=C/c1ccccc1)NC1CCCCC1 yielded a z-score of -0.571. CC(C)(C)n1nnnc1C(c1cccs1)N(Cc1cccnc1)Cc1ccco1 (centres undefined) was tested, and the z-score was -0.322. In the case of CCOC(=O)C(CCCOc1ccc(C(C)CC)cc1)C(=O)OCC (centres undefined), the z-score is reported as -0.584. COCCn1c(SCC(=O)N2CCCCC2)nc2ccccc2c1=O showed a z-score of -0.143. COc1ccccc1NC(=O)CN1CCN(Cc2ccccc2)CC1 gave a z-score of -0.202. Work on Fc1ccccc1CSc1nnc(-c2ccccc2)o1 yielded a z-score of -0.226. Work on COc1ccccc1C(=O)N1c2ccccc2Sc2ccccc21 yielded a z-score of -2.64. With CCc1ccccc1Nc1nc(N)nc(CSCC(=O)c2cc(C)n(C)c2C)n1 the z-score was -0.408. Compound CCCn1c(-c2cccc([N+](=O)[O-])c2)nc2c1c(=O)[nH]c(=O)n2Cc1ccccc1 has a z-score of -0.444. In the case of O=C1NC(=S)/C(=C\c2ccc(-c3ccccc3Cl)o2)S1, the z-score is reported as active: 3.83. CC(C)COc1ccc(C(=O)NC(=S)Nc2ccc(CN3CCOCC3)cc2)cc1 showed a z-score of -0.0271. In the case of Cc1cc(C)c2cc(CN(Cc3nnnn3Cc3ccc(F)cc3)C3CCCC3)c(=O)[nH]c2c1, the z-score is reported as 0.326. Cc1ccc(OCCSc2ncnc3nc[nH]c23)cc1 gave a z-score of 0.0215. For O=C1CN(C(=O)CSc2nnc(-c3ccccc3)n2Cc2ccc3c(c2)OCO3)c2ccccc2N1, the z-score was -1.54. Compound Cc1sc(NC(=O)C2CCCCC2C(=O)O)c(C(N)=O)c1C (centres undefined) has a z-score of 0.235.

— PubChem BioAssay AID488969 (Vanderbilt High Throughput Screening Facility, 2010)
